Experimental findings from the supplement of paper PMC8285479 are described below.

Structures can show the parent of a compound that is named as a salt. ± gives the standard deviation of the averaged measurements. The full ranking holds about 1,900 compounds; the median of “normalised cell viability (NPI; 0 = phenylarsine oxide control, 1 = DMSO control)” is about 1, and the lowest 2% start at about 0.039. The list shows a part of the results.

The test system of the assay is NCI-H1944. Put plainly: normalised cell viability (NPI; 0 = phenylarsine oxide control, 1 = DMSO control) (fraction of DMSO control); NCI-H1944 is a non-small cell lung cancer line; higher = more viable cells (less compound toxicity). As to conditions: 6 days.
Where [1] appears, read: glucocorticoid arm: hydrocortisone 2.75 uM co-treatment, compound 1 µM.
The mark [2] stands for this setting: glucocorticoid arm: hydrocortisone 2.75 uM co-treatment, compound 5 µM.
Where [3] appears, read: glucocorticoid arm: hydrocortisone 2.75 uM pre-treated 2 days and continued, compound 1 µM.
The mark [4] stands for this setting: glucocorticoid arm: hydrocortisone 2.75 uM pre-treated 2 days and continued, compound 5 µM.
Where [5] appears, read: glucocorticoid arm: vehicle, compound 1 µM.
Where [6] appears, read: glucocorticoid arm: vehicle, compound 5 µM.
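Also: CTB read-out in 384-well plates, mean of triplicate wells, normalised per plate against 1 µM phenylarsine oxide and 0.1% DMSO, compounds added 24 h after seeding.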

For `C[C@H](NC(=O)/C(C#N)=C/c1cccc(Br)n1)c1ccccc1`, the normalised cell viability runs as follows: under setting [1], 1.01 ± 0.012; under setting [2], 1.06 ± 0.032; under setting [3], 1.02 ± 0.017; under setting [4], 1.048 ± 0.0075; under setting [5], 0.9985 ± 0.0098; under setting [6], 0.0147 ± 0.011.
As for `CCNC(=O)Nc1ccc(-c2nc3c(c(N4CCOC[C@@H]4C)n2)CCN(C2COC2)C3)cc1`, the normalised cell viability runs as follows: under setting [1], 0.956 ± 0.018; under setting [2], 0.724 ± 0.023; under setting [3], 0.965 ± 0.015; under setting [4], 0.77 ± 0.027; under setting [5], 0.961 ± 0.021; under setting [6], 0.768 ± 0.066.
In the case of `C[C@]12CC[C@@H]3c4ccc(O)cc4CC[C@H]3[C@@H]1CC[C@@H]2O` [beta-Estradiol], the normalised cell viability amounted to 0.9927 ± 0.005 under setting [1]; 0.954 ± 0.022 under setting [2]; 0.9937 ± 0.0055 under setting [3]; 0.962 ± 0.028 under setting [4]; 0.9753 ± 0.0031 under setting [5]; 0.9807 ± 0.0032 under setting [6].
`CC(NC(=O)Cc1cc(F)cc(F)c1)C(=O)NC(C(=O)OC(C)(C)C)c1ccccc1` (stereo not drawn): the normalised cell viability by setting is: under setting [1], 0.983 ± 0.0036; under setting [2], 0.95 ± 0.016; under setting [3], 0.999 ± 0.01; under setting [4], 0.982 ± 0.015; under setting [5], 0.9947 ± 0.0032; under setting [6], 0.9877 ± 0.0032.
Regarding `OC(CN1CCC(Cc2ccc(F)cc2)CC1)c1ccc(Cl)cc1` (stereo not drawn) [Eliprodil], the normalised cell viability under setting [1] is 0.9487 ± 0.0064; the normalised cell viability under setting [2] was 0.9277 ± 0.0051; the normalised cell viability under setting [3] is 0.9827 ± 0.0091; the normalised cell viability under setting [4] was determined as 0.971 ± 0.0076; the normalised cell viability under setting [5] is 0.9973 ± 0.0046; the normalised cell viability under setting [6] was 0.9967 ± 0.0058.
Turning to `C[C@@H](Oc1ccc(Oc2cnc3ccc(Cl)cc3n2)cc1)C(=O)O`, the normalised cell viability came to 1.004 ± 0.0098 under setting [1]; 0.88 ± 0.023 under setting [2]; 0.858 ± 0.29 under setting [3]; 1.05 ± 0.015 under setting [4]; 1.027 ± 0.0058 under setting [5]; 0.522 ± 0.054 under setting [6].
For `CN(C)CC/C=C1/c2ccccc2Sc2ccc(Cl)cc21` [Chlorprothixene hydrochloride], the normalised cell viability runs as follows: under setting [1], 0.995 ± 0.002; under setting [2], 0.905 ± 0.011; under setting [3], 1.013 ± 0.0058; under setting [4], 0.993 ± 0.038; under setting [5], 0.9977 ± 0.004; under setting [6], 0.974 ± 0.015.
With `CN(C)CC/C=C1/c2ccccc2Sc2ccc(Cl)cc21` [Chlorprothixene], the normalised cell viability reads like this: under setting [1], 0.983 ± 0.01; under setting [2], 0.968 ± 0.018; under setting [3], 0.994 ± 0.025; under setting [4], 0.981 ± 0.013; under setting [5], 0.986 ± 0.01; under setting [6], 0.993 ± 0.0027.
For `N.N.N.N.N.N.N.N.N.N.N.N.N.N.O.O.[Cl-].[Cl-].[Cl-].[Cl-].[Cl-].[Cl-].[Ru+4].[Ru+5].[Ru+5]` [Ruthenium red], the normalised cell viability by setting is: under setting [1], 0.991 ± 0.01; under setting [2], 0.974 ± 0.021; under setting [3], 1.01 ± 0.027; under setting [4], 0.987 ± 0.023; under setting [5], 0.995 ± 0.0052; under setting [6], 0.973 ± 0.0087.
Turning to `CC(=O)[C@H]1CC[C@H]2[C@@H]3CCC4=CC(=O)CC[C@]4(C)[C@H]3CC[C@]12C` [Progesterone], the normalised cell viability is, setting by setting: under setting [1], 1.01 ± 0.01; under setting [2], 1.037 ± 0.0058; under setting [3], 1.02 ± 0.01; under setting [4], 1.08 ± 0.084; under setting [5], 0.996 ± 0.0035; under setting [6], 1 ± 0.015.
`CCOC(=O)CCNc1cc(N2CCc3ccccc3CC2)nc(-c2ccccn2)n1`: the normalised cell viability under setting [1] amounted to 0.9937 ± 0.0035; the normalised cell viability under setting [2] was found to be 1.02 ± 0.018; the normalised cell viability under setting [3] amounted to 0.989 ± 0.0076; the normalised cell viability under setting [4] came out at 1.02 ± 0.015; the normalised cell viability under setting [5] was found to be 0.9893 ± 0.0031; the normalised cell viability under setting [6] came out at 0.9767 ± 0.0015.
As for `CN(C)CCOC(c1ccccc1)c1ccccc1` [Diphenhydramine hydrochloride], the normalised cell viability is 0.994 ± 0.014 under setting [1]; 0.965 ± 0.014 under setting [2]; 0.992 ± 0.017 under setting [3]; 0.995 ± 0.027 under setting [4]; 0.981 ± 0.002 under setting [5]; 0.9863 ± 0.0042 under setting [6].
For the compound `N=C(N)NC(=O)Cc1c(Cl)cccc1Cl` [Guanfacine hydrochloride], the normalised cell viability came to 1.017 ± 0.0058 under setting [1]; 0.986 ± 0.023 under setting [2]; 1.03 ± 0.026 under setting [3]; 1.01 ± 0.027 under setting [4]; 1.017 ± 0.0058 under setting [5]; 1.02 under setting [6].
`C[n+]1cc2c3c(ccc2c2ccc4cc5c(cc4c21)OCO5)OCO3` [Sanguinarine chloride]: the normalised cell viability is, setting by setting: under setting [1], 1.04 ± 0.011; under setting [2], -0.0014 ± 0.001; under setting [3], 0.903 ± 0.2; under setting [4], -0.00109 ± 0.00052; under setting [5], 0.983 ± 0.037; under setting [6], -0.000203 ± 0.00043.
With `Nc1ncnc2c1ncn2[C@@H]1O[C@H](CO)[C@@H](O)[C@H]1O` [Adenosine], the normalised cell viability turned out to be 0.9973 ± 0.0046 under setting [1]; 1.01 ± 0.01 under setting [2]; 0.995 ± 0.015 under setting [3]; 0.987 ± 0.019 under setting [4]; 1 ± 0.015 under setting [5]; 1.003 ± 0.0058 under setting [6].
In the case of `O=C(c1ccc(Nc2nccc(-c3cc4ccccc4s3)n2)cc1)N1CCC(N2CCCC2)CC1` [IKK-16 (IKK Inhibitor VII)], the normalised cell viability by setting is: under setting [1], 0.901 ± 0.0072; under setting [2], 0.626 ± 0.03; under setting [3], 0.913 ± 0.015; under setting [4], 0.837 ± 0.021; under setting [5], 0.9453 ± 0.0065; under setting [6], 0.0503 ± 0.008.
Take `CC(=O)O[C@@]12CO[C@@H]1C[C@H](O)[C@@]1(C)C(=O)[C@H](O)C3=C(C)[C@@H](OC(=O)[C@H](O)[C@@H](NC(=O)OC(C)(C)C)c4ccccc4)C[C@@](O)([C@@H](OC(=O)c4ccccc4)[C@H]21)C3(C)C` [Docetaxel]: the normalised cell viability runs as follows: under setting [1], 0.159 ± 0.0035; under setting [2], 0.163 ± 0.0095; under setting [3], 0.462 ± 0.023; under setting [4], 0.518 ± 0.015; under setting [5], 0.049 ± 0.0034; under setting [6], 0.0428 ± 0.0097.
Turning to `COc1ccccc1N1CCN(CCN(C(=O)C2CCCCC2)c2ccccn2)CC1`, under setting [4], the normalised cell viability came out at 1.
Consider `Nc1ccn([C@@H]2O[C@H](CO)[C@@H](O)C2(F)F)c(=O)n1` [Gemcitabine hydrochloride; Gemcitabine HCl], for which the normalised cell viability reads like this: under setting [1], 0.202 ± 0.0062; under setting [2], 1.04 ± 0.015; under setting [3], 0.422 ± 0.044; under setting [4], 1.03; under setting [5], 0.0536 ± 0.0027; under setting [6], 1.013 ± 0.0058.
With `CO[C@H]1C[C@@H]2CC[C@@H](C)[C@@](O)(O2)C(=O)C(=O)N2CCCC[C@H]2C(=O)O[C@H]([C@H](C)C[C@@H]2CC[C@@H](OCCO)[C@H](OC)C2)CC(=O)[C@H](C)/C=C(\C)[C@@H](O)[C@@H](OC)C(=O)[C@H](C)C[C@H](C)/C=C/C=C/C=C/1C` [Everolimus (RAD001)], the normalised cell viability is, setting by setting: under setting [1], 0.814 ± 0.02; under setting [2], 0.765 ± 0.01; under setting [3], 0.82 ± 0.01; under setting [4], 0.814 ± 0.038; under setting [5], 0.732 ± 0.06; under setting [6], 0.667 ± 0.0087.
Take `CO[C@H]1C[C@@H]2CC[C@@H](C)[C@@](O)(O2)C(=O)C(=O)N2CCCC[C@H]2C(=O)O[C@H]([C@H](C)C[C@@H]2CC[C@@H](OCCO)[C@H](OC)C2)CC(=O)[C@H](C)/C=C(\C)[C@@H](O)[C@@H](OC)C(=O)[C@H](C)C[C@H](C)/C=C/C=C/C=C/1C` [Everolimus; Everolimus(RAD001)]: the normalised cell viability came to 1.023 ± 0.0058 under setting [1]; 0.769 ± 0.019 under setting [2]; 1.02 ± 0.011 under setting [3]; 0.879 ± 0.017 under setting [4]; 1.003 ± 0.0058 under setting [5]; 0.642 ± 0.034 under setting [6].
As for `CN(C)CCN(Cc1ccccc1)c1ccccn1` [Tripelennamine HCl], the normalised cell viability was 1.007 ± 0.0058 under setting [1]; 1 ± 0.026 under setting [2]; 1.01 ± 0.01 under setting [3]; 1 ± 0.033 under setting [4]; 0.9993 ± 0.0011 under setting [5]; 1.01 under setting [6].
Regarding `N=C(N)c1ccc(OCCCCCOc2ccc(C(=N)N)cc2)cc1` [Pentamidine isethionate], the normalised cell viability was 0.952 ± 0.026 under setting [1]; 0.0941 ± 0.0061 under setting [2]; 1.03 ± 0.025 under setting [3]; 0.792 ± 0.033 under setting [4]; 1.017 ± 0.0058 under setting [5]; 0.182 ± 0.034 under setting [6].
